# Test results reported in the supplement of paper PMC3334620.
# Whole data set: some 33,000 sequences, median “E-score (-0.5 to 0.5)” near -0.021, cut for the highest 2% near 0.32. The list shows a part of the results.
# Target: T1, Zap1 (UniProt P47043)
# T1 sequence: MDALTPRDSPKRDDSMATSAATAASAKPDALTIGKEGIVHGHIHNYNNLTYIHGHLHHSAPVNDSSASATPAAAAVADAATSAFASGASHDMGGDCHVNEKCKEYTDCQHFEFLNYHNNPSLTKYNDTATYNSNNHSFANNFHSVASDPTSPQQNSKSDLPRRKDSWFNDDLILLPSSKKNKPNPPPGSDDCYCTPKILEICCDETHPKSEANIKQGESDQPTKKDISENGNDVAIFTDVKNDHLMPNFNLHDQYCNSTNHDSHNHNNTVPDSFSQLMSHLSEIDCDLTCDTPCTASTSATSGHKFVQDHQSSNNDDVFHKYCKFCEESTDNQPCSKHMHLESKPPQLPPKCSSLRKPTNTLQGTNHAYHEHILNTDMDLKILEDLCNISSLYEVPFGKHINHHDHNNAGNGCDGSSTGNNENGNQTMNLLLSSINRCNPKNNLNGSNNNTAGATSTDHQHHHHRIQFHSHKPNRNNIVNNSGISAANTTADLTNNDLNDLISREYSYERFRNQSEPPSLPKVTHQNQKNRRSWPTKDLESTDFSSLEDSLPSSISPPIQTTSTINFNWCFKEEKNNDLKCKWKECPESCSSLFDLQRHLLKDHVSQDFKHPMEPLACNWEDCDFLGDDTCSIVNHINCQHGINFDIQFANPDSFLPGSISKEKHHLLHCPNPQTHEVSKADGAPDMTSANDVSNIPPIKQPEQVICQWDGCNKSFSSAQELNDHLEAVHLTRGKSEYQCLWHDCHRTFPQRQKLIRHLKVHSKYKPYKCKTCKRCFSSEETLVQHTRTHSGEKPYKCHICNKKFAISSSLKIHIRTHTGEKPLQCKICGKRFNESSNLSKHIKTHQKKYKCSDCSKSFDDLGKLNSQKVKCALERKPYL
# Test: PBM E-score (8-mer binding enrichment) (E-score (-0.5 to 0.5)); higher = stronger / more preferred TF binding; most listed sequences are background and not binding sites
# Conditions: protein concentration: 200 nM; construct: GST-full length
# Summary of the method: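 Masliner-normalised scans of fluorescent anti-GST signal were the basis for scoring. That signal came from GST-tagged yeast transcription factors applied at about 100-200 nM to double-stranded universal all-10-mer Agilent arrays on fresh or once-stripped slides. Each ungapped eight-base word, pooled with its reverse complement, received an E-score from the Universal PBM Analysis Suite.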
row,Sequence,PBM E-score
1,AAAAGTGC,-0.171
2,GAATCATA,0.0497
3,CATCACTA,0.0202
4,AACCCGCG,0.27
5,CTAAACAG,0.00211
6,CATAGCAC,-0.146
7,CGGTGACA,0.193
8,AACATGTG,0.108
9,CCCCGACG,0.144
10,CTAGACGC,-0.226
11,CTAAAGAG,-0.131
12,ATTACTTA,0.0402
13,CTTATTTC,0.137
14,CGTTACCA,0.31
15,CCGTACCA,0.102
16,GGCAGGAC,-0.264
17,GCCTCCCA,-0.305
18,GAACGACA,-0.0514
19,ACGTTGCT,-0.129
20,CATAATGC,-0.0714
21,CACTGTAC,-0.084
22,GATTTACA,0.0139
23,AGTTTTTG,0.203
24,GCACCGAC,-0.0839
25,GAAGCTGA,-0.0921

row,Sequence,PBM E-score
1,CACTACGA,-0.0155
2,AGATAACG,0.0406
3,GGATTAGA,-0.243
4,GACATGAC,-0.0772
5,GGTAATTA,0.252
6,CCGAATTC,-0.067
7,ATCACGGG,0.0371
8,AAGCTCTA,0.154
9,CGACGGCA,-0.155
10,GGAAGTAA,-0.0575
11,CGCTGGAA,-0.107
12,CGGTTTTA,0.172
13,ACCATGTC,-0.0322
14,CATTCCCC,-0.138
15,CCTAAGCA,-0.00646
16,GCGTGACA,-0.136
17,CTGCTATA,-0.0175
18,GCGCTGCC,-0.21
19,GAAATGCA,-0.00568
20,CAATCGAG,-0.255
21,TCTGCTCA,-0.0932
22,CAAAAGGG,0.276
23,CGCCTTAC,-0.0277
24,GAAAAGAC,0.0296
25,CTAAGACA,-0.0463

row,Sequence,PBM E-score
1,GACAAATC,-0.0199
2,AGGCCCTG,-0.101
3,GAAAAAAA,0.184
4,CCGGTTTC,0.0368
5,AGCAGTCC,-0.307
6,CGCGCTGA,-0.179
7,GACATTCA,-0.184
8,ATAGATAC,0.0197
9,CCGTATGA,-0.0636
10,GTACACGA,-0.0167
11,TTACTGAA,0.169
12,AGTGCGTG,-0.107
13,ATGAGACA,-0.031
14,GACCGAAC,0.0709
15,GCATCGCC,-0.194
16,GGCAAAGA,0.122
17,ACACGTCG,-0.352
18,AATGGTTC,0.246
19,GAGTGGCC,-0.0229
20,CAAAGCTG,-0.0306
21,AACCGAGT,0.0606
22,AACTGTTA,0.265
23,CCTGCGTA,-0.0182
24,AGTAGTAC,0.194
25,CAATAAGC,0.061

row,Sequence,PBM E-score
1,ATATGAGC,-0.113
2,GGCATACC,-0.195
3,TCATGGCA,0.00543
4,CGTCGAGC,-0.244
5,TAACCCAA,0.424
6,CCCAATTC,0.157
7,AGTAAGGA,-0.0988
8,ACGCGACC,0.0626
9,CAATCGCG,0.0132
10,GGCAGGGA,-0.171
11,CATTTGGC,0.0268
12,GTGACTTA,-0.00842
13,ACGCCTGA,-0.0889
14,TATGCGCA,-0.264
15,AAGGTAAG,0.0248
16,ATGACTTC,-0.0599
17,ACTTTCCT,-0.195
18,CGCAAGCC,-0.0515
19,GACGGCAA,-0.0817
20,TCGATTCA,0.0394
21,CCTCATCA,0.0805
22,GTTACAGA,0.183
23,ATCTCTCG,-0.106
24,CCCACGCC,-0.0544
25,ATACGAAT,-0.00358

row,Sequence,PBM E-score
1,CACTCTAA,0.0733
2,GGGAATTA,0.112
3,GACGCCTC,-0.0974
4,ACCGTTAC,0.129
5,GCAGTTAC,0.109
6,CATTATAG,0.0127
7,GTAAAGAA,0.122
8,CGAATGAC,0.0549
9,CGTAGCTC,-0.191
10,AAGAAGGC,-0.243
11,CATTTAAG,0.0457
12,AAAGGCAA,0.172
13,ATTCGCAA,-0.0696
14,CACTACTA,0.053
15,CACCCATG,-0.0985
16,GGGGTCTA,0.0957
17,GTATCCCA,-0.022
18,AAGTTTAT,0.113
19,AGGTGCAC,-0.14
20,GCATAGCA,-0.0832
21,GACCTTGC,0.133
22,ACAGAAAA,0.132
23,CCGCAAGA,0.0833
24,AGATCATA,0.0757
25,AATATAGA,0.0809

row,Sequence,PBM E-score
1,AAACTCCT,-0.301
2,AGCATCGG,-0.283
3,GGTTTCCA,-0.00766
4,CGTTAGCA,0.0484
5,GACGAAAA,0.279
6,ACTGCTAC,-0.0295
7,AGTTAGTA,-0.00813
8,AGGATCTG,-0.242
9,CTTAGCCC,-0.188
10,AGCCGGCT,-0.327
11,GTTGTTAA,0.253
12,CTTAGCAC,-0.0368
13,GCTATAAA,-0.00454
14,AGGTACCT,0.443
15,ACGTACCG,-0.111
16,CGTTCGTA,0.00932
17,GAATGATC,0.0795
18,CCTGAATC,0.00265
19,TATGGAGA,0.0344
20,ACCATACA,0.0885
21,GCTAAGAA,-0.123
22,CGTAAGAG,-0.151
23,CAATATGG,0.1
24,AACCTACG,0.123
25,GTTTTGGA,0.21

row,Sequence,PBM E-score
1,CTCGACAA,-0.0199
2,ACCCGTGG,0.108
3,ATCGATAA,-0.0514
4,CAGAGCCA,-0.0889
5,ATAGATGA,-0.0652
6,ATCCTTAC,-0.0987
7,AGGCTTTA,-0.179
8,CGGGCAAA,0.0441
9,ACACGGAA,0.132
10,GGTTAGTA,0.325
11,AAAAGTAC,0.262
12,ATGTTACA,0.028
13,CCAGATTA,0.18
14,ACCCCTTG,0.279
15,ACTAGTTC,0.0802
16,ATATACAG,0.146
17,TAAGTTCA,0.0427
18,CACTGTTC,-0.108
19,CTAGCAGC,-0.156
20,CAGCTTGC,-0.144
21,GCGAACGC,-0.253
22,GCAGTCTA,-0.262
